Test results published in patent US20140044674A1 (Hoffmann-La Roche, published 2014).

Experiments:
[1] = molecular target: T1, recombinant human FAP coated on cell culture plates (human, UniProt Q12884 26-760, limits assumed); assay: cell-based or functional assay
[2] = molecular target: T1, recombinant human FAP coated on cell …; assay: cell-based or functional assay; remark: listed apart in the source
[3] = molecular target: T1, recombinant human FAP coated on cell …; assay: cell-based or functional assay; remark: listed apart in the source
[4] = molecular target: T1, recombinant human FAP coated on cell …; assay: cell-based or functional assay; remark: listed apart in the source
[5] = molecular target: T1, recombinant human FAP coated on cell …; assay: cell-based or functional assay; remark: listed apart in the source
[6] = molecular target: T1, recombinant human FAP coated on cell …; assay: cell-based or functional assay; remark: listed apart in the source
[7] = molecular target: T1, recombinant human FAP coated on cell …; assay: cell-based or functional assay; remark: listed apart in the source
[8] = molecular target: T1, recombinant human FAP coated on cell …; assay: cell-based or functional assay; remark: listed apart in the source
[9] = molecular target: T1, recombinant human FAP coated on cell …; assay: cell-based or functional assay; remark: listed apart in the source
[10] = molecular target: T1, recombinant human FAP coated on cell …; assay: cell-based or functional assay; remark: listed apart in the source
His-tagged human FAP ECD = molecular target: T2, His-tagged human FAP ECD (human, UniProt Q12884 27-760); assay: SPR ProteOn XPR36, 25 C; His-tagged FAP captured by anti-penta-His IgG, construct as analyte
T2 construct: also called hu FAP
Experimental: (§1) To determine the affinities to FAP, the target protein was captured via its H6-tag by a covalently immobilized anti-H6 antibody (FIG. 9A). Briefly, anti-penta His IgG (Qiagen #34660, mouse monoclonal antibody) was immobilized at high levels (up to ˜5.000 RU) at 30 μ/min onto separate vertical channels of a GLM chip by simultaneously activating all channels for 5 min with a freshly prepared mixture of 1-ethyl-3-(3-dimethylaminopropyl)-carboiimide (EDC) and N-hydroxysuccinimide (sNHS), subsequently injecting 15 μg/ml anti-penta His IgG in 10 mM sodium acetate buffer pH 4.5 for 180 sec. Channels were blocked using a 5-min injection of ethanolamine. H6-tagged FAP from different species (see SEQ ID NOs 81, 83 and 85) was captured from a 5 μg/ml dilution in running buffer along the vertical channels for 60 s at 30 μl/min to achieve ligand densities between ˜250 and 600 RU. In a one-shot kinetic assay set-up (OSK), antibody-IL-10 fusion constructs were injected as analytes along the horizontal channels in a five-fold dilution series ranging from 50 to 0.08 nM at 100 μl/min. Association phase was recorded for 180 s, dissociation phase for 600 s. […] Running buffer (PBST) was injected along the sixth channel to provide an “in-line” blank for referencing. Association rates (kₒₙ) and dissociation rates (koff) were calculated using a simple 1:1 Langmuir binding model (ProteOn Manager software version 2.1) by simultaneously fitting the association and dissociation sensorgrams. The equilibrium dissociation constant (KD) was calculated as the ratio koff/kₒₙ.

His-tagged mouse FAP ECD [11] = molecular target: T3, His-tagged mouse FAP ECD (mouse, UniProt P97321 27-761); assay: as above
T3 construct: also called mu FAP; murine FAP
Experimental: as §1

[12] = molecular target: T4, His-tagged cynomolgus FAP ECD (cynomolgus, UniProt Q12884 27-760 (human entry)); assay: as above
T4 construct: also called cyno FAP
Experimental: as §1

His-tagged mouse FAP ECD [13] = molecular target: T3, His-tagged mouse FAP ECD; assay: SPR ProteOn XPR36, 25 C; His-tagged FAP captured by anti-penta-His IgG, construct as analyte; KD calculated with the estimated koff
Experimental: as §1

His-tagged mouse FAP ECD [14] = molecular target: T3, His-tagged mouse FAP ECD; assay: SPR ProteOn XPR36, 25 C; His-tagged FAP captured by anti-penta-His IgG, construct as analyte; off-rate could not be fitted, estimate used
Experimental: as §1

EC50, suppression of LPS-induced hIL-1β production by monocytes, set-up (b) (immobilized), donor 1 [1]: 1 pM | EC50, suppression of LPS-induced hIL-6 production by monocytes, set-up (b) (immobilized), donor 1 [1]: 2 pM | EC50, suppression of LPS-induced hTNFα production by monocytes, set-up (b) (immobilized), donor 1 [1]: 1 pM | EC50, suppression of LPS-induced hIL-1β production by monocytes, set-up (b) (immobilized), donor 2 [2]: 0.2 pM | EC50, suppression of LPS-induced hIL-6 production by monocytes, set-up (b) (immobilized), donor 2 [2]: 1 pM | EC50, suppression of LPS-induced hTNFα production by monocytes, set-up (b) (immobilized), donor 2 [2]: 0.2 pM | EC50, suppression of LPS-induced hIL-1β production by monocytes, set-up (b) (immobilized), donor 3 [3]: 0.2 pM | EC50, suppression of LPS-induced hIL-6 production by monocytes, set-up (b) (immobilized), donor 3 [3]: 1 pM | EC50, suppression of LPS-induced hTNFα production by monocytes, set-up (b) (immobilized), donor 3 [3]: 0.2 pM | EC50 [nM] IL-6, suppression of IL-6 production by monocytes, set-up (b) (immobilized), donor 4 [4]: 0.002 nM | hIL-6 EC50 [nM], construct immobilized on FAP coated at 0.25 µg/ml, monocytes donor 5 [5]: 0.019 nM | hIL-6 EC50 [nM], construct immobilized on FAP coated at 0.5 µg/ml, monocytes donor 5 [5]: 0.001 nM | hIL-6 EC50 [nM], construct immobilized on FAP coated at 1 µg/ml, monocytes donor 5 [5]: 0.002 nM | hIL-6 EC50 [nM], construct immobilized on FAP coated at 5 µg/ml, monocytes donor 5 [5]: 0.0004 nM | EC50 [nM] IL-6, suppression of IL-6 production by monocytes, Set-up (b), donor 7 [6]: 0.009 nM | EC50, suppression of hIL-1β production by monocytes, set-up (b) (immobilized), donor 1 [7]: 1 pM | EC50, suppression of hTNFα production by monocytes, set-up (b) (immobilized), donor 1 [7]: 1 pM | EC50, suppression of hIL-1β production by monocytes, set-up (b) (immobilized), donor 2 [8]: 0.2 pM | EC50, suppression of hIL-6 production by monocytes, set-up (b) (immobilized), donor 2 [8]: 1 pM | EC50, suppression of hTNFα production by monocytes, set-up (b) (immobilized), donor 2 [8]: 0.2 pM | EC50, suppression of hIL-1β production by monocytes, set-up (b) (immobilized), donor 3 [9]: 0.2 pM | EC50, suppression of hIL-6 production by monocytes, set-up (b) (immobilized), donor 3 [9]: 1 pM | EC50, suppression of hTNFα production by monocytes, set-up (b) (immobilized), donor 3 [9]: 0.2 pM | EC50, suppression of hIL-6 production by monocytes, set-up (b) (immobilized) [10]: 4 pM | Kd (His-tagged human FAP ECD): 40.7 pM | koff (His-tagged human FAP ECD): 0.000124 s⁻¹ | kon (His-tagged human FAP ECD): 3.04e+06 M⁻¹ s⁻¹ | kon (His-tagged mouse FAP ECD [11]): 1.55e+06 M⁻¹ s⁻¹ | Kd [12]: 29 pM | koff [12]: 0.000106 s⁻¹ | kon [12]: 3.66e+06 M⁻¹ s⁻¹ | Kd (His-tagged mouse FAP ECD [13]): 6.45 pM | koff (His-tagged mouse FAP ECD [14]): ~1e-05 s⁻¹
B1: 4G8 IgG-IL-10 (other)
heavy: [about 100 residues omitted here][about 120 residues omitted here][human IgG1 Fc with changes omitted here]GGGGSGGGGSGGGGSGGGGSSPGQGTQSENSCTHFPGNLPNMLRDLRDAFSRVKTFFQMKDQLDNLLLKESLLEDFKGYLGCQALSEMIQFYLEEVMPQAENQDPDIKAHVNSLGENLKTLRLRLRRCHRFLPCENKSKAVEQVKNAFNKLQEKGIYKAMSEFDIFINYIEAYMTMKIRN
light: EIVLTQSPGTLSLSPGERATLSCRASQSVSRSYLAWYQQKPGQAPRLLIIGASTRATGIPDRFSGSGSGTDFTLTISRLEPEDFAVYYCQQGQVIPPTFGQGTKVEIKRTVAAPSVFIFPPSDEQLKSGTASVVCLLNNFYPREAKVQWKVDNALQSGNSQESVTEQDSKDSTYSLSSTLTLSKADYEKHKVYACEVTHQGLSSPVTKSFNRGEC
notes: Fusion of anti-FAP IgG1 (clone 4G8) and IL-10; the two IL-10 monomers dimerize within the molecule; also called IgG-IL-10 (clone 4G8)
